Source: PubChem BioAssay (NCI)
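Where inhibition never reached the appropriate level, the endpoint shown equals the highest concentration tested. Otherwise, values were interpolated linearly from a five-concentration, 48-hour dose response in 96-well plates. Abbreviation: GI50, concentration required for 50% inhibition of growth.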 Certain results were filed several times, with different values. They are shown here; other results are not. An entry can have further records. For some of these results: The tests behind the records often covered other concentration ranges, which the source does not state; some values may only mark the edge of a range. For some of these results: The records of an entry are repeated measurements (runs, samples, wells, individuals or studies). What stands in brackets tells the records apart. Letters count within one entry.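 TGI: total growth inhibition.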

Key:
Experiment in all cases: NCI tumour cell line growth inhibition, 48 h
UACC-257 melanoma = system: UACC-257 melanoma
IGROV1 ovarian = system: IGROV1 ovarian
XF 498 CNS = system: XF 498 CNS
M19-MEL melanoma = system: M19-MEL melanoma
DMS 114 small cell lung = system: DMS 114 small cell lung
SN12K1 renal = system: SN12K1 renal
LOX IMVI melanoma = system: LOX IMVI melanoma
DLD-1 colon = system: DLD-1 colon
P388/ADR leukemia = system: P388/ADR leukemia
HOP-18 NSCLC = system: HOP-18 NSCLC
DMS 273 small cell lung = system: DMS 273 small cell lung
P388 leukemia = system: P388 leukemia
SNB-78 CNS = system: SNB-78 CNS
KM20L2 colon = system: KM20L2 colon
HL-60(TB) leukemia = system: HL-60(TB) leukemia
SNB-75 CNS = system: SNB-75 CNS
K-562 leukemia = system: K-562 leukemia
SK-MEL-5 melanoma = system: SK-MEL-5 melanoma

## COc1nc(N)nc2c1ncn2C1OC(CO)C(O)C1O (centres undefined)
UACC-257 melanoma
  GI50: 2.95 µM and > 5 mM
IGROV1 ovarian
  GI50: 38.5 µM and > 5 mM

## CO[C@H](C(=O)[C@@H](O)[C@@H](C)O)[C@@H]1Cc2cc3cc(OC4CC(OC5CC(O)C(O)C(C)O5)C(O)C(C)O4)c(C)c(O)c3c(O)c2C(=O)[C@H]1OC1CC(OC2CC(OC3CC(C)(O)C(O)C(C)O3)C(O)C(C)O2)C(O)C(C)O1 (some centres undefined)
XF 498 CNS
  TGI: > 1.25 mM [1 test] and < 13.1 nM [mean of 3 tests] and < 125 nM [mean of 7 tests]
M19-MEL melanoma
  TGI: > 1.25 mM [1 test] and 165 nM [mean of 4 tests] and 0.832 nM [mean of 5 tests] and 851 nM [mean of 9 tests]
DMS 114 small cell lung
  TGI: > 1.25 mM [1 test] and 66.8 nM [mean of 4 tests] and 278 nM [mean of 7 tests]
SN12K1 renal
  TGI: 16.9 µM, > 1.25 mM [1 test] and 0.599 nM, 211 µM [mean of 4 tests]
LOX IMVI melanoma
  TGI: > 1.25 mM [1 test] and 36.2 µM [mean of 11 tests] and 340 nM [mean of 2 tests] and 0.22 nM [mean of 3 tests]
DLD-1 colon
  TGI: > 1.25 mM [1 test] and 10.2 µM [mean of 4 tests] and 82.2 µM [mean of 9 tests]
P388/ADR leukemia
  TGI: > 1.25 mM [1 test] and 14.4 µM [mean of 4 tests] and 38.7 µM [mean of 7 tests]
HOP-18 NSCLC
  TGI: 0.991 nM, 22.1 nM, 259 µM
DMS 273 small cell lung
  TGI: > 1.25 mM [1 test] and 240 nM [mean of 4 tests] and 0.158 nM [mean of 5 tests] and 276 nM [mean of 8 tests]
P388 leukemia
  TGI: > 1.25 mM [1 test] and 209 nM [mean of 4 tests] and 6.27 µM [mean of 7 tests]
SNB-78 CNS
  TGI: > 1.25 mM [1 test] and 38.8 µM [mean of 7 tests]
KM20L2 colon
  TGI: > 1.25 mM [1 test] and 521 nM [mean of 4 tests] and 185 µM [mean of 8 tests]

## Cc1sc2c(c1C)C(c1ccc(Cl)cc1)=N[C@@H](CC(=O)OC(C)(C)C)c1nnc(C)n1-2
HL-60(TB) leukemia
  TGI: 5.15 µM [sample A, mean of 2 tests] and 485 nM [sample B, mean of 2 tests]
SNB-75 CNS
  TGI: 11.1 µM [sample A, mean of 2 tests] and 982 nM [sample B, mean of 2 tests]
K-562 leukemia
  GI50: 741 nM [sample A, mean of 2 tests] and 57.3 nM [sample B, 1 test]

## C=C(OC1C(C)=C2C(C1OC(=O)CCCCCCC)C(C)(OC(C)=O)CC(OC(=O)CCC)C1(O)C2OC(=O)C1(C)O)/C(C)=C/C (centres undefined)
LOX IMVI melanoma
  TGI: 3.04 nM and 583 nM
SK-MEL-5 melanoma
  TGI: 1.63 nM and 90 nM
